# In the supplement of paper PMC8728848:
# Some of the results follow.
# Columns and labels:
# Assay in all cases: glycan array binding signal (z-score within array); higher = stronger binding
# Settings in all cases: glycan notation: IUPAC condensed, linker removed
# [1] = target: Fuc(a1-2)[GalNAc(b1-3)]Gal
# In short: (§1)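 The binding signal is a Z-score computed within each array. Data were drawn from 3228 arrays in the Consortium for Functional Glycomics database, restricted to those with a known protein sequence. Scores were averaged over arrays of the same protein sequence at different concentrations or buffers, and over linkers, and negative values can be taken as non-binding.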
# Fuc(a1-3)GlcNAc = target: Fuc(a1-3)GlcNAc
# In short: as §1
# [2] = target: Fuc(a1-3)[Gal(b1-4)]Glc6S
# In short: as §1
# [3] = target: Fuc(a1-3)[Gal(b1-4)]GlcNAc
# In short: as §1
# [4] = target: Fuc(a1-3)[Gal(b1-4)]GlcNAc(b1-2)Man
# In short: as §1
# [5] = target: Fuc(a1-3)[Gal(b1-4)]GlcNAc(b1-2)Man(a1-3)[Fuc(a1-3)[Gal(b1-4)]GlcNAc(b1-2)Man(a1-6)]Man(b1-4)GlcNAc(b1-4)GlcNAc
# In short: as §1
# [6] = target: Fuc(a1-3)[Gal(b1-4)]GlcNAc(b1-2)Man(a1-3)[Fuc(a1-3)[Gal(b1-4)]GlcNAc(b1-2)Man(a1-6)]Man(b1-4)GlcNAc(b1-4)[Fuc(a1-6)]GlcNAc
# In short: as §1
# [7] = target: Fuc(a1-3)[Gal(b1-4)]GlcNAc(b1-3)Gal(b1-3)[Fuc(a1-4)]GlcNAc
# In short: as §1
# [8] = target: Fuc(a1-3)[Gal(b1-4)]GlcNAc(b1-3)Gal(b1-4)[Fuc(a1-3)]GlcNAc
# In short: as §1
# [9] = target: Fuc(a1-3)[Gal(b1-4)]GlcNAc(b1-3)Gal(b1-4)[Fuc(a1-3)]GlcNAc(b1-3)Gal(b1-4)[Fuc(a1-3)]GlcNAc
# In short: as §1
# [10] = target: Fuc(a1-3)[Gal(b1-4)]GlcNAc(b1-3)GalNAc
# In short: as §1
# [11] = target: Fuc(a1-3)[Gal(b1-4)]GlcNAc(b1-6)GalNAc
# In short: as §1
# [12] = target: Fuc(a1-3)[Gal(b1-4)]GlcNAc(b1-6)[Gal(b1-3)GlcNAc(b1-3)]Gal(b1-4)Glc
# In short: as §1
# [13] = target: Fuc(a1-3)[Gal(b1-4)]GlcNAc6S
# In short: as §1
# [14] = target: Fuc(a1-3)[Gal3S(b1-4)]Glc
# In short: as §1
# [15] = target: Fuc(a1-3)[Gal3S(b1-4)]GlcNAc
# In short: as §1
# [16] = target: Fuc(a1-3)[Gal3S(b1-4)]GlcNAc6S
# In short: as §1
# [17] = target: Fuc(a1-3)[GalNAc(b1-4)]GlcNAc
# In short: as §1
# [18] = target: Fuc(a1-3)[GalNAc(b1-4)]GlcNAc6S
# In short: as §1
# Fuc(a1-4)GlcNAc = target: Fuc(a1-4)GlcNAc
# In short: as §1
# Fuc(b1-3)GlcNAc = target: Fuc(b1-3)GlcNAc
# In short: as §1
# Gal(a1-2)Gal = target: Gal(a1-2)Gal
# In short: as §1
# Gal(a1-3)Gal = target: Gal(a1-3)Gal
# In short: as §1
# Gal(a1-3)Gal(b1-3)GlcNAc = target: Gal(a1-3)Gal(b1-3)GlcNAc
# In short: as §1
# [19] = target: Gal(a1-3)Gal(b1-3)GlcNAc(b1-2)Man
# In short: as §1
# [20] = target: Gal(a1-3)Gal(b1-3)GlcNAc(b1-2)Man(a1-3)[Gal(a1-3)Gal(b1-3)GlcNAc(b1-2)Man(a1-6)]Man(b1-4)GlcNAc(b1-4)GlcNAc
# In short: as §1
# [21] = target: Gal(a1-3)Gal(b1-3)GlcNAc(b1-3)GalNAc
# In short: as §1
# [22] = target: Gal(a1-3)Gal(b1-3)GlcNAc(b1-6)GalNAc
# In short: as §1
# [23] = target: Gal(a1-3)Gal(b1-3)[Fuc(a1-4)]GlcNAc(b1-2)Man(a1-3)[Gal(a1-3)Gal(b1-3)[Fuc(a1-4)]GlcNAc(b1-2)Man(a1-6)]Man(b1-4)GlcNAc(b1-4)GlcNAc
# In short: as §1
# Gal(a1-3)Gal(b1-4)Glc = target: Gal(a1-3)Gal(b1-4)Glc
# In short: as §1
binder,measurement,setting,value
"CC1G-10077 (Coprinopsis cinerea), A8NDT7 (protein) MALNEGVYWIRNSRFTNKVLDLDAANVAKGTSILDFNEHGTFNENHNQLWIVERFQSRDTYLIRSVHSNLVLDLSQGLSANGTPILCWTQHGGTNQQWRIEWVKDDNKTPLYRIVSVATGTAISHNEDDSSAYTVAWSVDDGPKQLWSFDPFVTPLLYRLRVKSTSRVLDLAAASADNGTLALAWEQHTAITKRNQLWWLPYRSGAEEYTIQCLETSTVADLSGGNSGNGTPIYGWQSHGGRNQQWKFEPTSDSGDYYHIKNVEGGSVMDAYMNDSQKRVGGWSNNGGDNQKWLLDPLPSPGPGWVLIQNGGTGKFLCSTPSGDIGTADGPETVYDYSVQWRFIQREYTGVYHVVNRATGAYLRQIGTSMPSIGLAEENDDELKDWWMLETYDNSEIGLASIISRWTGNVLDHYGGVSVQALDNNTENSYRSWAIIPARDWLTSFSLVNGQGGLCLAAQYAREETRLSTTANVNDFHAQWVFRKPSGSSGYTIQNKYNNHYVGGTSARWELVVCCNKYFGIRNTSTQKYLAIEDGQVTFQDQDMTDRKQCWELCSGRATDTSGNDYDLIYMDDDLLEVMIPWVGDKQGDLKHYIEKRATKKPPKDKGGWQLPAAGLIKKPKFNDIRQLLQELIEQWEWDVVNEEREQIQTLVSIDEAEARRLLGRRPHPDIVAAYQRSRSSTLFRIDRQGYFNIAGDRYVNIQGQYGDDSYFHIALPVGVRFGREQIRRFLRDSLDRSTSVTITPTTCKPPSGGPDYNRDPDSDGDNSWIKWTIAVVGTSAIKHSEL",glycan array binding signal (z-score),[1],0.546
same,glycan array binding signal (z-score),Fuc(a1-3)GlcNAc,-0.513
same,glycan array binding signal (z-score),[2],-0.451
same,glycan array binding signal (z-score),[3],-0.488
same,glycan array binding signal (z-score),[4],-0.497
same,glycan array binding signal (z-score),[5],-0.467
same,glycan array binding signal (z-score),[6],-0.364
same,glycan array binding signal (z-score),[7],-0.51
same,glycan array binding signal (z-score),[8],-0.467
same,glycan array binding signal (z-score),[9],-0.524
same,glycan array binding signal (z-score),[10],-0.414
same,glycan array binding signal (z-score),[11],-0.37
same,glycan array binding signal (z-score),[12],0.174
same,glycan array binding signal (z-score),[13],-0.392
same,glycan array binding signal (z-score),[14],-0.424
same,glycan array binding signal (z-score),[15],-0.473
same,glycan array binding signal (z-score),[16],-0.43
same,glycan array binding signal (z-score),[17],-0.4
same,glycan array binding signal (z-score),[18],-0.386
same,glycan array binding signal (z-score),Fuc(a1-4)GlcNAc,-0.457
same,glycan array binding signal (z-score),Fuc(b1-3)GlcNAc,-0.448
same,glycan array binding signal (z-score),Gal(a1-2)Gal,-0.544
same,glycan array binding signal (z-score),Gal(a1-3)Gal,-0.329
same,glycan array binding signal (z-score),Gal(a1-3)Gal(b1-3)GlcNAc,-0.108
same,glycan array binding signal (z-score),[19],0.453
same,glycan array binding signal (z-score),[20],-0.139
same,glycan array binding signal (z-score),[21],-0.252
same,glycan array binding signal (z-score),[22],1.19
same,glycan array binding signal (z-score),[23],0.093
same,glycan array binding signal (z-score),Gal(a1-3)Gal(b1-4)Glc,-0.336
